Laboratory results reported in PubChem BioAssay AID1030 (National Center for Advancing Translational Sciences (NCATS), 2008).
The whole screen tested about 220,000 compounds, of which about 16,000 (7.3%) were called active. This list was built around the results that the source calls inconclusive (neither active nor inactive); the mix of calls is not that of the screen. Calls come from the whole dose curve; as a rule, active = well fitted inhibition curve with a large enough effect (not every such curve was filed as active); inconclusive = small, poorly fitted or top-dose-only effect, or another doubt; inactive = no such curve, though single readings can be large or run the other way. Potencies beside an inconclusive call are fits to weak or partial responses and may not hold up.

What follows are compounds tested against Aldehyde dehydrogenase 1A1 (Homo sapiens) (UniProt P00352) (assay: qHTS Assay for Inhibitors of Aldehyde Dehydrogenase 1 (ALDH1A1)). Conditions: Purified ALDH1A1, NADH fluorescence, propionaldehyde substrate; series mostly up to 75.3 µM.
Chain of UniProt P00352 (P00352 whole entry, looked up): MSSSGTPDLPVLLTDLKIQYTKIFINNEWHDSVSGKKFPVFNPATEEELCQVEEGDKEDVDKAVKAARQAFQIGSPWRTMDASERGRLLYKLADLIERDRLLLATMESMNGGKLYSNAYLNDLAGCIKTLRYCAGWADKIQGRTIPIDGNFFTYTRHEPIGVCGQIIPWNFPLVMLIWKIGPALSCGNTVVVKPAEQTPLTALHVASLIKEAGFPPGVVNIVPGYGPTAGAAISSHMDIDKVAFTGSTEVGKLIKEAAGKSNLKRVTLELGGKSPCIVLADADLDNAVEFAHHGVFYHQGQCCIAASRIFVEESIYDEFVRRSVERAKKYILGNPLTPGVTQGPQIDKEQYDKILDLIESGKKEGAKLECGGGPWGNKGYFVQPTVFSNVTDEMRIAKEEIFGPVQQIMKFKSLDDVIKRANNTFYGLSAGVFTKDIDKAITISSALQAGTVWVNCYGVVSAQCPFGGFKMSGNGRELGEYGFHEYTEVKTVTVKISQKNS
Potency is the fitted concentration of half-maximal effect; tags give direction and shape of the fitted curve.
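Throughout, for activity, negative = inhibition: plate controls were no enzyme wells and a reference inhibitor.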

Potency, inactive:
Cc1cccc(NC(=S)N/N=C/c2cccn2Cc2ccc(F)cc2)c1
COc1ccc(-n2c(-c3ccc(Br)cc3)c[n+]3c2CCCCC3)cc1
COc1ccc(Nc2cc(C)nc(-n3nc(C)cc3C)n2)cc1
COc1ccccc1N1CCN(CC(O)COc2cccc3ccccc23)CC1 (stereo not given)
COCC(C)NC(=O)COc1nncc2ccccc12 (stereo not given)
C=CCn1c(N)cc(=O)nc1SC(C)C(=O)Nc1cccc2ccccc12 (stereo not given)
Cc1ccc2cc(C#N)c(SCC(=O)NNC(=O)Cc3ccccc3)nc2c1
Cc1ccc(C(=O)N/C(=C\c2ccco2)C(=O)NCCc2c[nH]c3ccccc23)cc1
CCCN1CCN(C(=S)Nc2ccccc2C(F)(F)F)CC1
COc1ccc(NC(=O)CC(NCc2ccccn2)C(=O)O)cc1 (stereo not given)
Cc1noc(C)c1C(c1ccccc1)S(=O)(=O)c1ccccc1 (stereo not given)
COc1ccc(C(C)=O)c(OC(=O)c2ccc(OC)c(OC)c2)c1

Potency, active:
O=C(N/C(=C\c1cccc([N+](=O)[O-])c1)C(=O)N1CCCCC1)c1cccs1 20 µM
CCc1ccc(-n2c(CSc3nnnn3-c3ccccc3)nc3ccccc3c2=O)cc1 1.41 µM
Cc1ccc(S(=O)(=O)N2CCCC2)cc1S(=O)(=O)N1CCCC1 17.8 µM
Cc1ccc(/C=c2\s/c(=C(/C#N)C(=O)N3CCCC3)n(Cc3ccco3)c2=O)s1 3.55 µM

Potency, inconclusive:
CC(C)CN1C(=O)C(=O)N(CC(=O)Nc2cc(Cl)ccc2Oc2ccccc2)C1=O 44.7 µM [inhibitor, single point]
c1ccc(CNc2ncncc2-c2ccc3c(c2)OCO3)cc1 17.8 µM [inhibitor, partial curve]
COc1cc(/C=C2/NC(=O)NC2=O)cc(Br)c1OCc1cccc(C(=O)O)c1 31.6 µM [inhibitor, single point]
Cc1cc(C(C)(C)C)cc(S(=O)(=O)Nc2cccc(C(=O)O)c2)c1C 25.1 µM [inhibitor, partial curve]
Cc1ccc(C=Nc2ccc(N(C)C)cc2)o1 31.6 µM [inhibitor, partial curve]
CN(CC(=O)Nc1ccccc1F)CC(=O)Nc1ccccc1Br 35.5 µM [inhibitor, single point]
COc1ccc(C(=O)N=c2c(C#N)cc3c(=O)n4cccc(C)c4nc3n2Cc2ccco2)cc1 25.1 µM [inhibitor, partial curve]
CCOC(=O)c1c(C)[nH]c(C(=O)OCc2c(C)noc2C)c1C 39.8 µM [inhibitor, single point]
CC1CCCN(C(=O)CNC(=O)Cn2ccc3ccccc3c2=O)C1 (stereo not given) 39.8 µM [inhibitor, partial curve]
Cc1cc(NCc2ccccn2)n2c(nc3ccccc32)c1C#N 17.8 µM [inhibitor, partial curve]
Cc1nc2cnc(N3CCN(C)CC3)nc2n(CCC#N)c1=O 28.2 µM [inhibitor, partial curve]
Cc1ccc(C(=O)CSc2nnc(-c3ccco3)n2CC2CCCO2)cc1 (stereo not given) 39.8 µM [inhibitor, single point]
COC(=O)c1[nH]c2cccc(OC)c2c1NC(=O)CN1CCN(c2cccc(OC)c2)C(C)C1 (stereo not given) 44.7 µM [inhibitor, single point]
Cc1cc(NC(C)C)n2c(nc3ccccc32)c1C#N 31.6 µM [inhibitor, partial curve]
CC(NC(=O)CSc1nc2c(cc1C#N)CN(C)CC2)c1ccccc1 (stereo not given) 39.8 µM [inhibitor, single point]
CCOc1cccc2sc(N(CCCN(C)C)C(=O)Cc3ccccc3)nc12 39.8 µM [inhibitor, single point]
COc1ccc(-n2nnc3c(=O)n(CC(=O)N4CCC(Cc5ccccc5)CC4)cnc32)cc1 39.8 µM [inhibitor, single point]
CSCCC(NC(=O)C1CCC(C)CC1)C(=O)N1CCN(c2ccccn2)CC1 (stereo not given) 39.8 µM [inhibitor, single point]
CCC(=O)N(C1=C(NC(C)C)C(=O)c2ccccc2C1=O)C(C)C 29.9 µM [inhibitor, single point]
S=C(Nc1ccccc1Cl)Nc1ccc(Cl)cc1Cl 39.8 µM [inhibitor, single point]
COc1cc(/C=N/NC(=O)C(=O)NCc2ccco2)ccc1O 39.8 µM [inhibitor, single point]
Cc1ccc(-c2c3c(=O)n(C)c(=O)n(C)c3cn2Cc2ccccn2)cc1 39.8 µM [inhibitor, single point]
CC1CC(=O)c2cnc(Nc3cccc(C(F)(F)F)c3)nc2C1 (stereo not given) 10 µM [inhibitor, partial curve]
CCCCNC(=O)c1ccc(CS(=O)(=O)Cc2ccccc2F)o1 28.2 µM [inhibitor, partial curve]
CCCCNc1nc(C)nc2c1nc(-c1ccccc1)n2CC1CCN(C)CC1 31.6 µM [inhibitor, partial curve]
Cc1cc(C)nc(NS(=O)(=O)c2ccc(N3C(=O)C4CC=C(Cl)CC4C3=O)cc2)n1 (stereo not given) 39.8 µM [inhibitor, single point]
CCOC(=O)C1CN(S(=O)(=O)c2ccc(OC)cc2)c2cc(S(=O)(=O)CC)ccc2O1 (stereo not given) 8.91 µM [inhibitor, partial curve]
CC(c1ccccc1)N1CCc2[nH]c(=S)[nH]c(=O)c2C1 (stereo not given) 39.8 µM [inhibitor, single point]

activity, negative = inhibition, inactive:
CC(C)=CCC/C(C)=C/CO/N=C1/C[C@@H](O)[C@@H](O)[C@@H]2[C@@H]3C(=O)N(C[C@@H]4CCCO4)C(=O)[C@H]3CC[C@@H]12 -0.692% [at 13.5 µM]
